Reference: PMC3661926 (Acta Neuropathologica, 2013)

Target: α-syn oligomers (Homo sapiens, UniProt P37840)
Conditions: 50 µM compound, αSyn 2,1 µM (αSyn alone 64.5%)
Protocol: Planar lipid bilayers were generated and analyzed in a Ionovation Compact (Ionovation, Osnabrück, Germany) by the painting technique. Two bath chambers (1.2 ml) separated by a Teflon-septum were filled with 250 mM KCl, 10 mM MOPS, pH = 7.2 (Merck, Darmstadt, Germany and Roth, Karlsruhe, Germany). Then, 2 μl of a 100 mg/ml-solution of purified azolectin in n-Decan (Ionovation, Osnabrück, Germany) were applied to a 120-μm pinhole in the septum. After 30 min incubation at room temperature, lipid was thinned out by repetitive lowering and re-raising of the buffer level until a bilayer was formed. This formation was monitored optically and by capacitance measurements. […] Measurements were performed using Ag/AgCl-electrodes connected to an EPC10-amplifier and Patchmaster software (HEKA, Lambrecht/Pfalz, Germany). The noise was ~0.5 pA at 3 kHz bandwidth. α-syn was incubated in 50 mM Tris–HCl, pH 7.0 with 1 % DMSO (Sigma-Aldrich, Taufkirchen, Germany) and 20 μM FeCl3 (Merck, Darmstadt, Germany) for 72 h at room temperature in a total volume of 200 μl. […] . After bilayer formation, α-syn was added in 20 μl aliquots to the cis chamber close to the membrane and the electrophysiological properties were monitored. Threshold for pore detection was set to 72 pS. If no pore formation was detected for 5 min, the next aliquot of the same sample was added as described previously.

Structure (SMILES): O=c1cc(-c2ccccc2)oc2cc(O)c(O)c(O)c12 [baicalein]
- pore formation [%]: 12.5%
